The text below walks through data of publication PMC7819943, “Rice protein-binding microarrays: a tool to detect cis-acting elements near promoter regions in rice”.

The list shows a part of the results.

The assay deals with T1, OsWOX13 (Oryza sativa, UniProt Q5QMM3 1-267).
T1 sequence: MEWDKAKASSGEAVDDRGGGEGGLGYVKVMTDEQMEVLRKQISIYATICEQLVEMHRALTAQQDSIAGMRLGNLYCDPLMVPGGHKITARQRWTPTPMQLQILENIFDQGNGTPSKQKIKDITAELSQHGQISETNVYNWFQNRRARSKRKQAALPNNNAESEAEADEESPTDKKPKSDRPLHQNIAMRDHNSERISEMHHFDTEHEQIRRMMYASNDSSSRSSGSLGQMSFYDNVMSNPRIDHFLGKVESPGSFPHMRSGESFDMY
Description: protein-binding microarray (RPBM); PBS, 2% BSA, 51.3 ng/ul salmon testes DNA, 50 uM zinc acetate, 200 nM TF, 25 C, 1 h; high values mean tight binding. Conditions: protein: recombinant; tags: N-terminal polyhistidine and DsRed monomer fusion (pET32a); label: CyDye5-dUTP incorporated in the synthesized complementary strand; 3' TTTTT single-stranded linker to array surface; dsDNA, one strand shown. In outline: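 Transcription factors were each fused at the N-terminus to a polyhistidine tag plus DsRed and expressed in E. coli BL21-CodonPlus before Ni–NTA purification. Binding to a double-stranded custom Agilent array was carried out with 200 nM protein at 25 °C for 1 h in PBS, 2% BSA, salmon testes DNA and 50 µM zinc acetate. The binding signal is per-feature fluorescence intensity, in arbitrary units, on an Axon 4000B scanner.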
For “GCCAATTACAAATTCAACACCTAAATTTAAGCAAACACATCGGAGTCACCTAGTGCAG”, the binding signal is 7010 fluorescence intensity (a.u.).

Turning to “ATAATTACTTAAATTGTTTGAATAAGACGAACGATCAAACCGGAGTCACCTAGTGCAG”, the binding signal is 29600 fluorescence intensity (a.u.). The value for “GGTAATTGATCGATCCTTGACTTCTTAATGCATATTATTGCGGAGTCACCTAGTGCAG” was 29300 fluorescence intensity (a.u.); that for “AGCAAATTAACTACAACTGCTAAAGCTAGGCTGTAACCCACGGAGTCACCTAGTGCAG” was 15500 fluorescence intensity (a.u.). The value for “TTAATGGACGCATGGACGAAATTGATCGGAACGGTTGGAACGGAGTCACCTAGTGCAG” was 3210 fluorescence intensity (a.u.); that for “TTGATTGGAAAGATTGGAAAGAATTGAATGCGAATTGGTACGGAGTCACCTAGTGCAG” was 34500 fluorescence intensity (a.u.). The figure for “ATGCAGTGTGATTTTAGGTGATTACTACTCCATTCTTGCTCGGAGTCACCTAGTGCAG” is 13900 fluorescence intensity (a.u.). With “GCCAACCTTATAGCTAATTATTATATATATTGACTTTAAGCGGAGTCACCTAGTGCAG”, the binding signal was 4860 fluorescence intensity (a.u.).

Take “GTGTGCAGACTGGTCAATTAGAAACACACATGCTTTTGAACGGAGTCACCTAGTGCAG”: the binding signal is 3470 fluorescence intensity (a.u.). Turning to “TTGTAATTTTCCCAACTTCAAATTCCAGCCCATTTCGAATCGGAGTCACCTAGTGCAG”, the binding signal is 3560 fluorescence intensity (a.u.). Take “AAGCCAATTAAACAACCAGATACTCAAGTTATAACATAATCGGAGTCACCTAGTGCAG”: the binding signal was 3700 fluorescence intensity (a.u.). Turning to “AGCAAATGATGGGCTTTCATGGCTGCTTCCATGGACGTGGCGGAGTCACCTAGTGCAG”, the binding signal was 4780 fluorescence intensity (a.u.). As for “AATCCTATGCTAATTCATCAAATTAGACTCGATTCTATCGCGGAGTCACCTAGTGCAG”, the binding signal was 4540 fluorescence intensity (a.u.). The figure for “TGGTTGATTTGATGAGATGAGATCCCAAACTATTACAAAACGGAGTCACCTAGTGCAG” is 25700 fluorescence intensity (a.u.).

Regarding “CACTTTTAATCAGGTGATTAGGATTTACCAGGTGCACACACGGAGTCACCTAGTGCAG”, the binding signal was 16500 fluorescence intensity (a.u.). Consider “CTAATAATGAAATTTAGACTTATATTAGGACTATATATATCGGAGTCACCTAGTGCAG”, for which the binding signal was 5550 fluorescence intensity (a.u.). The value for “GCGATTTGATTGATGCTGACCATCTCACCTCAACCGTCGGCGGAGTCACCTAGTGCAG” was 49300 fluorescence intensity (a.u.); that for “TTTGTCACTCTTGTGACATGTCAATTAACGATTTGTCACACGGAGTCACCTAGTGCAG” was 6810 fluorescence intensity (a.u.).

As to “TCATAAATTATCCGTATCATATTTAATTTATACTGTGGCCCGGAGTCACCTAGTGCAG”, the binding signal was 38400 fluorescence intensity (a.u.). The figure for “TCCAGGTGATGGTAATGATATTGACATGCCCTCATCTAGTCGGAGTCACCTAGTGCAG” is 3770 fluorescence intensity (a.u.); for “ATTAAATTGATATTAGAACAAACTAAATACTACGAGGTCCCGGAGTCACCTAGTGCAG” it is 38500 fluorescence intensity (a.u.); for “ATAGGGAGTTACTAATTATCTTGATTCTTGTGGCACATTTCGGAGTCACCTAGTGCAG” it is 3200 fluorescence intensity (a.u.).

Consider “AAACCTTCAAATTAGTAATGGCATGTGTCTAATTAACCCACGGAGTCACCTAGTGCAG”, for which the binding signal is 5310 fluorescence intensity (a.u.). The value for “CACGAACCCAATCAATCCAATGGATTTCCATCCTTGTAAACGGAGTCACCTAGTGCAG” was 8440 fluorescence intensity (a.u.).

Regarding “ATGTTATCAAATTTATAGGAAAATTGATCAGCATCTATAACGGAGTCACCTAGTGCAG”, the binding signal was 19600 fluorescence intensity (a.u.). The figure for “AGTATAATGACTGTTAGATCTCCATAAAACTGGCCACAAACGGAGTCACCTAGTGCAG” is 3510 fluorescence intensity (a.u.); for “CTTAATTATTCGTGATTTTGTAGTAGAATATCATGCTAATCGGAGTCACCTAGTGCAG” it is 50500 fluorescence intensity (a.u.); for “GGAAGATTGCCATCAGCAATAGCAAGGGTCACTTCTTTGTCGGAGTCACCTAGTGCAG” it is 13000 fluorescence intensity (a.u.). In the case of “GAAACAGCACAAATTTTGATGTGACAGCTTCATATTTCCCCGGAGTCACCTAGTGCAG”, the binding signal was 4420 fluorescence intensity (a.u.). The figure for “AAAACTAATTACAAAATCCGCAAGTAAATCGTGAGGCGAACGGAGTCACCTAGTGCAG” is 14400 fluorescence intensity (a.u.); for “CCTAATTAATCTGTCATTAGCAAATATTTATTGTAGCATCCGGAGTCACCTAGTGCAG” it is 47000 fluorescence intensity (a.u.). “CAATGGGTTCAACATAATTGATGAAAATAATAAATGCCAACGGAGTCACCTAGTGCAG”: the binding signal is 12600 fluorescence intensity (a.u.). The figure for “AGCCTCGTTTTGAAGCCTAATTATCAATCTGATCTTACTTCGGAGTCACCTAGTGCAG” is 4020 fluorescence intensity (a.u.); for “TCATCAAATGATTAACTAGTGTTATGCCCGTACATTGTAGCGGAGTCACCTAGTGCAG” it is 12600 fluorescence intensity (a.u.); for “TATATGATTTCCATAATTTCAATATAAGATCGCAACATTGCGGAGTCACCTAGTGCAG” it is 15700 fluorescence intensity (a.u.). Take “ATTGATTTGGTTACAGAGGACTCGGAATATGGGTGGTGATCGGAGTCACCTAGTGCAG”: the binding signal is 20800 fluorescence intensity (a.u.). The figure for “TCATCTTTTCAATTATGTTTATACTTATTAGTAAAACATTCGGAGTCACCTAGTGCAG” is 3480 fluorescence intensity (a.u.). “ACTGATATTCTTTCAATTTTGTGTTGACAAGTAACAAATACGGAGTCACCTAGTGCAG”: the binding signal was 3600 fluorescence intensity (a.u.).

Consider “TTTCAAGTTTTCAACCAATCACAACCATCGTTGATTTTATCGGAGTCACCTAGTGCAG”, for which the binding signal is 4930 fluorescence intensity (a.u.). The figure for “AGAAATTAACCAAATTCCTAAACATGTTGGCACGACTTAGCGGAGTCACCTAGTGCAG” is 12500 fluorescence intensity (a.u.); for “CAAATGTTTCTAAATGATTGGCTTAATGTGTCAACCGGACCGGAGTCACCTAGTGCAG” it is 28700 fluorescence intensity (a.u.). Take “AAATAGATTTGGAGTGAGCATCAAGACTCTGCTCTCGGCTCGGAGTCACCTAGTGCAG”: the binding signal was 8340 fluorescence intensity (a.u.). For “CTTGATCCAGGCTCAGATTGAAACTGGCGGTCGAGAGATTCGGAGTCACCTAGTGCAG”, the binding signal is 3890 fluorescence intensity (a.u.). The figure for “ATCAATCAATCAATCAATCAGCAAAGAGCATCCCAAACAACGGAGTCACCTAGTGCAG” is 33900 fluorescence intensity (a.u.); for “ATGTTATGAATTGATTGGGTTAGGGAGTTTTCTTCTGGTCCGGAGTCACCTAGTGCAG” it is 35700 fluorescence intensity (a.u.); for “CCTAGCCCTAATTGATCCTTGCCTCGATGTTTTCCCTCCGCGGAGTCACCTAGTGCAG” it is 19100 fluorescence intensity (a.u.).

Turning to “ACTTTGACATAGTTGTTAATTACATATGAAAGCGGCTTAACGGAGTCACCTAGTGCAG”, the binding signal is 22900 fluorescence intensity (a.u.). For “GGGGCTTGATTTATTGGGGTTTTGATAGTTGAGAACTTGACGGAGTCACCTAGTGCAG”, the binding signal is 30900 fluorescence intensity (a.u.).

Turning to “TTTCTCTAATTTATTTGCACCACGTAGCGACTTAGGATAGCGGAGTCACCTAGTGCAG”, the binding signal is 7300 fluorescence intensity (a.u.).

For the sequence “TGGCAAATTAGTAGCTTGGTGGAAATTGCCCGAGTTGAGTCGGAGTCACCTAGTGCAG”, the binding signal was 6110 fluorescence intensity (a.u.). For “GTCCATTCACCACAAATTTAACACCGTTACCATTAGTTAACGGAGTCACCTAGTGCAG”, the binding signal is 5050 fluorescence intensity (a.u.).

In the case of “TATATATATATATATATATATATATATATAACTACAATAGCGGAGTCACCTAGTGCAG”, the binding signal is 28800 fluorescence intensity (a.u.). The value for “ACATAAATTGAGAATCAATATGCAATACTAAAGGTTCAAGCGGAGTCACCTAGTGCAG” was 18100 fluorescence intensity (a.u.); that for “CCGAGGAAACAATTATTGGTGACGTAGCTAAATCTTAGGTCGGAGTCACCTAGTGCAG” was 3460 fluorescence intensity (a.u.).
